Results on 19 compounds are retold here after PubChem BioAssay AID1745853 (National Center for Advancing Translational Sciences (NCATS), 2022).

Test in all cases: Primary Screen for Target Class Profiling of Small Molecule Inhibitors of Methyltransferases
Assay [1] addresses Glycine N-methyltransferase (Homo sapiens) (UniProt Q14749). Conditions: purified enzyme, MTase-Glo SAH luminescence; measured here: GNMT inhibition; at 40 µM; stronger effect = lower value. A digest of the protocol: (§1)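 Each enzyme was assayed with SAM and its substrate. SAH formation detected by MTase-Glo luminescence; single-point 40 uM screen[…].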
Assay [2] concerns the target Guanidinoacetate N-methyltransferase (Homo sapiens) (UniProt Q14353). Conditions: purified enzyme, MTase-Glo SAH luminescence; measured here: GAMT inhibition; at 40 µM; stronger effect = lower value. The procedure, abridged: as §1
Assay [3] addresses Histamine N-methyltransferase (Homo sapiens) (UniProt P50135). Conditions: purified enzyme, MTase-Glo SAH luminescence; measured here: HNMT inhibition; at 40 µM; stronger effect = lower value. The procedure, abridged: as §1
Assay [4] deals with Nicotinamide N-methyltransferase (Homo sapiens) (UniProt P40261). Conditions: purified enzyme, MTase-Glo SAH luminescence; measured here: NNMT inhibition; at 40 µM; stronger effect = lower value. The procedure, abridged: as §1
The target in assay [5] is Phenylethanolamine N-methyltransferase (Homo sapiens) (UniProt P11086). Conditions: purified enzyme, MTase-Glo SAH luminescence; measured here: PNMT inhibition; at 40 µM; stronger effect = lower value. A digest of the protocol:
as §1

The other results are listed elsewhere or left out. The main result of the screen is listed elsewhere. These columns were measured beside it and carry no call.
On the % scale 0 is the no-effect control and ±100 the full control effect.

Turning to `CCc1cccc(N2C(=O)c3c(NC(C)=O)c4cc(F)ccc4n3CC2(C)C(=O)NC2CCCC2)c1` (stereo not given), the activity change, negative = inhibition in assay [1] was -11.9%; in assay [2], 1.2%; in assay [3], -7.8%; in assay [4] it was -2.51%; in assay [5], -5.03%.
`CCOc1ccccc1CN1C(=O)c2cc3occc3n2CC1(C)C(=O)NC1CCCCC1` (stereo not given): the activity change, negative = inhibition in assay [1] was 4.29%; in assay [2], 0%; in assay [3], 7.91%; in assay [4] it was 8.66%; in assay [5], 3.3%.
The corresponding values for `O=C(NCCN1CCN(c2cccc3c2OCCO3)CC1)c1ccc(F)cc1` are -2.29%, -7.19%, 8.63%, -21.9% and -3.55%.
As to `CC(=O)Nc1c2n(c3ccc(F)cc13)CC(C)(C(=O)NC1CCCCCC1)N(C1CCCCC1)C2=O` (stereo not given), the activity change, negative = inhibition in assay [1] is -6%; in assay [2], 2.76%; in assay [3] it was 0.354%; in assay [4], -0.361%; in assay [5] it was -4.36%.
The corresponding values for `COc1ccc(OC)c(S(=O)(=O)N2CCc3nc(-c4ccc(Cl)cc4)ncc3C2)c1` are 17.5%, 6.02%, 13.5%, 9.97% and 11.5%.
The like results for `O=C(NCCCNc1nc(Nc2cccc(CN3CCOCC3)c2)ncc1C1CC1)C1CCC1` were, in that order, 0.913%, 5.85%, -62.1%, -20.6% and -13.1%.
For the compound `CC1=C(CO)CC(C(C)C2CCC3C4CC=C5CC(OC6OC(COC7OC(CO)C(O)C(O)C7O)C(O)C(O)C6O)CC(O)C5(C)C4CCC23C)OC1=O` (stereo not given), the activity change, negative = inhibition is 6.37% in assay [1]; 8.03% in assay [2]; 9.09% in assay [3]; -7.67% in assay [4]; 8.42% in assay [5].
The corresponding values for `CN1CCC(N2CC3(CCC2=O)CCN(C(=O)c2ccccn2)CC3)C1` (stereo not given) are -0.447%, -4.57%, 3.05%, -1.66% and 2.23%.
As to `COc1cc(C#N)ccc1S(=O)(=O)Nc1ccc2c(c1)cc(C)c(=O)n2C`, the activity change, negative = inhibition is -2.3% in assay [1]; -6.67% in assay [2]; 10.9% in assay [3]; -16.7% in assay [4]; 3.56% in assay [5].
The corresponding values for `COc1ccc(NC(=O)CCc2nnc3n(CC(C)C)c(=O)c4ccccc4n23)cc1` are -7.23%, 0%, 11%, 11.6% and 2.05%.
The like results for `CCOC(=O)c1cc2n(n1)CC(C)(C(=O)NCc1ccc(Cl)cc1)N(CCc1ccco1)C2=O` (stereo not given) were, in that order, 2.33%, 6.88%, 6.59%, -0.574% and 3.62%.
The corresponding values for `O=C(CCc1nnc2n(Cc3ccc(Cl)cc3)c(=O)c3ccccc3n12)N1CCN(c2ncccn2)CC1` are -14.2%, 5.95%, 5.91%, -13.9% and 0.877%.
As to `COc1ccc(NC(=O)CCC2CCCN(C(=O)c3ccccc3SC)C2)cc1Cl` (stereo not given), the activity change, negative = inhibition is -3.6% in assay [1]; -0.958% in assay [2]; -23.9% in assay [3]; -5.73% in assay [4]; -4.32% in assay [5].
For the compound `CN1C(=O)c2cc(C(=O)NC3CCCCC3)nn2CC1(C)C(=O)NC1CCCCCC1` (stereo not given), the activity change, negative = inhibition amounted to 4.74% in assay [1]; 0% in assay [2]; 3.39% in assay [3]; 8.5% in assay [4]; 2.02% in assay [5].
Consider `CCc1cc2c(cc3n2CC(C)(C(=O)NC2CCC(C)CC2)N(C(C)CCc2ccco2)C3=O)s1` (stereo not given), for which the activity change, negative = inhibition is -23.7% in assay [1]; 4.52% in assay [2]; 0.297% in assay [3]; -41.2% in assay [4]; -1.13% in assay [5].
Regarding `COc1ccc(CNC(=O)c2cc3n(n2)CC(C)(C(=O)NC2CCCCCC2)N(C)C3=O)c(OC)c1` (stereo not given), the activity change, negative = inhibition in assay [1] was -3.03%; in assay [2], 0%; in assay [3], -3.75%; in assay [4], -6.91%; in assay [5], -6.6%.
For `O=C(NOCC1CC1)c1cc(Br)c(F)c(F)c1Nc1ccc(I)cc1Cl`, the activity change, negative = inhibition in assay [1] is 1.41%; in assay [2], 8.81%; in assay [3], 6.99%; in assay [4] it was -9.26%; in assay [5], -3.33%.
`COC(=O)C1=CO[C@@H](O[C@@H]2O[C@H](CO)[C@@H](O)[C@H](O)[C@H]2O)[C@@H]2[C@@H](C)[C@@H](OC(=O)/C=C/c3ccccc3)[C@@H](O)[C@H]12`: the activity change, negative = inhibition was 3.25% in assay [1]; 5.26% in assay [2]; 4.83% in assay [3]; -6.83% in assay [4]; 6.32% in assay [5].
Turning to `CCN1CCN(C(=O)c2ccc3nnc(-c4cccnc4)n3c2)CC1`, the activity change, negative = inhibition is -6.46% in assay [1]; -14.9% in assay [2]; -4.79% in assay [3]; -12.1% in assay [4]; -9.56% in assay [5].
